We go through three molecules from paper PMC10017685 (Nature Communications, 2023).

Read-outs that look alike come from different tables or passages of the source.

One series deals with S. aureus ATCC 33591. The class given is cell-based, Staphylococcus aureus. How it is done:
(§1) Fresh cultures were used in antimicrobial assay. […] Moreover MBC was evaluated. […] All experiments were conducted in triplicate.

Another series deals with E. coli ATCC 25922. The class given is cell-based, Escherichia coli. How it is done:
as §1

The next series has as its system E. coli ATCC 43827. It counts as cell-based, Escherichia coli.
Series [1] has as its system A. baumannii ATCC BAA 1605. It counts as cell-based, Acinetobacter baumannii. The conditions noted are these: triplicate; for A. baumannii ATCC BAA 1605 MIC: second experimental round, broth microdilution (CLSI), Mueller-Hinton Broth, 0.5 × 10^5 CFU/mL, 1-[…], 18 h at 37 °C; for A. baumannii ATCC BAA 1605 MBC: second round, MIC well and two higher concentrations seeded on agar plates, no visible colonies. The procedure: as §1

For another series, the system named is P. aeruginosa ATCC 9027. The class given is cell-based, Pseudomonas aeruginosa. The conditions noted are these: triplicate; for P. aeruginosa ATCC 9027 MIC: second experimental round, broth microdilution (CLSI), Mueller-Hinton Broth, 0.5 × 10^5 CFU/mL, 1-[…], 18 h at 37 °C; for P. aeruginosa ATCC 9027 MBC: second round, MIC well and two higher concentrations seeded on agar plates, no visible colonies. How it is done:
as §1
For orientation: Broth dilution looks for growth in wells or tubes with falling amounts of substance.

For a further series, the system named is Sheep red blood cells. Put plainly: Hemolysis assay (HC50). It counts as cell-based. The conditions noted are these: for HC50 (µM/ml): sheep erythrocytes, recalculated from μg/mL values, estimated as in https://pubmed.ncbi.nlm.nih.gov/29307075/; for HC50: sheep red blood cells 4% (v/v) in PBS, peptides 1-[…], 60 min at 37 °C, hemoglobin release at 590 nm, 1% Triton-X 100 = 100% hemolysis, triplicate, HC50 by ic50.tk.

Where [2] appears, read: second experimental round, broth microdilution (CLSI), Mueller-Hinton Broth, 0.5 × 10^5 CFU/mL, 1-[…], 18 h at 37 °C, triplicate.
[3] abbreviates: second round, MIC well and two higher concentrations seeded on agar plates, no visible colonies, triplicate.

As a reminder, the HC50 is the concentration that lyses half of the red blood cells. Low values mean stronger haemolysis, high ones weaker haemolysis. In the case of `CC[C@H](C)[C@H](NC(=O)[C@H](CCCCN)NC(=O)[C@H](CCCCN)NC(=O)[C@@H](NC(=O)[C@@H](NC(=O)[C@H](CCCCN)NC(=O)[C@@H](NC(=O)[C@H](C)NC(=O)[C@@H](NC(=O)[C@H](Cc1c[nH]cn1)NC(=O)CNC(=O)[C@H](C)NC(=O)[C@H](CC(C)C)NC(=O)[C@H](CC(=O)O)NC(=O)[C@H](CCCCN)NC(=O)[C@H](C)NC(=O)[C@H](C)NC(=O)[C@H](CO)NC(=O)[C@H](CCCCN)NC(=O)[C@H](CC(C)C)NC(=O)[C@@H](NC(=O)[C@H](CCC(=O)O)NC(=O)[C@H](CC(C)C)NC(=O)[C@@H](NC(=O)CN)C(C)C)[C@@H](C)CC)C(C)C)[C@@H](C)O)C(C)C)[C@@H](C)CC)C(N)=O` [Syphaxin-TII7], in the series on S. aureus ATCC 33591 (setting [2]), the “S. aureus ATCC 33591 MIC” value was found to be 64 µg/mL. The “S. aureus ATCC 33591 MBC” value in the series on S. aureus ATCC 33591 (setting [3]) was 64 µg/mL. Further, the “E. coli ATCC 25922 MIC” value in the series on E. coli ATCC 25922 (setting [2]) came out at 256 µg/mL. Moreover, in the series with E. coli ATCC 25922 (setting [3]), the “E. coli ATCC 25922 MBC” value was 512 µg/mL. In the series with E. coli ATCC 43827 (setting [2]), the “E. coli ATCC 43827 MIC” value was 512 µg/mL. Further, in the series on E. coli ATCC 43827 (setting [3]), the “E. coli ATCC 43827 MBC” value worked out at 512 µg/mL. In series [1], the “A. baumannii ATCC BAA 1605 MIC” value came out at 64 µg/mL and the “A. baumannii ATCC BAA 1605 MBC” value worked out at 64 µg/mL. In the series with P. aeruginosa ATCC 9027, the “P. aeruginosa ATCC 9027 MIC” value is 512 µg/mL and the “P. aeruginosa ATCC 9027 MBC” value is above 512 µg/mL. Further, in the series with Sheep red blood cells, the “HC50 (µM/ml)” value is 151 µM/ml and the HC50 is above 512 µg/mL.
Consider `CC[C@H](C)[C@H](N)C(=O)N[C@@H](CC(C)C)C(=O)N[C@@H](CCCNC(=N)N)C(=O)N[C@@H](Cc1c[nH]c2ccccc12)C(=O)N[C@H](C(=O)N[C@@H](Cc1c[nH]c2ccccc12)C(=O)N[C@@H](CCCCN)C(=O)N[C@H](C(=O)N[C@@H](Cc1c[nH]c2ccccc12)C(=O)N[C@@H](CCCNC(=N)N)C(=O)N[C@@H](CCCNC(=N)N)C(=O)N[C@@H](Cc1c[nH]c2ccccc12)C(N)=O)[C@@H](C)CC)[C@@H](C)CC` [Alacemycin], for which, in the series on S. aureus ATCC 33591 (Supplementary Data 5D/5E), the “S. aureus ATCC 33591 MBC” value came out at 16 µg/mL and the “S. aureus ATCC 33591 MIC” value is 8 µg/mL. The “S. aureus ATCC 33591 MBC” value in the series with S. aureus ATCC 33591 (setting [3]) was found to be 16 µg/mL. Further, in the series on E. coli ATCC 25922 (Supplementary Data 5D/5E), the “E. coli ATCC 25922 MBC” value worked out at 32 µg/mL and the “E. coli ATCC 25922 MIC” value came out at 32 µg/mL. Besides, in the series on E. coli ATCC 25922 (setting [2]), the “E. coli ATCC 25922 MIC” value worked out at 32 µg/mL. Moreover, in the series with E. coli ATCC 25922 (setting [3]), the “E. coli ATCC 25922 MBC” value was 32 µg/mL. In the series on E. coli ATCC 43827 (Supplementary Data 5D/5E), the “E. coli ATCC 43827 MBC” value was found to be 16 µg/mL and the “E. coli ATCC 43827 MIC” value was determined as 16 µg/mL. Moreover, the “E. coli ATCC 43827 MIC” value in the series on E. coli ATCC 43827 (setting [2]) stood at 16 µg/mL. Also, the “E. coli ATCC 43827 MBC” value in the series with E. coli ATCC 43827 (setting [3]) was 16 µg/mL. Also, in series [1], the “A. baumannii ATCC BAA 1605 MIC” value is 8 µg/mL and the “A. baumannii ATCC BAA 1605 MBC” value amounted to 16 µg/mL. For the same molecule, in the series with P. aeruginosa ATCC 9027, the “P. aeruginosa ATCC 9027 MIC” value is 32 µg/mL and the “P. aeruginosa ATCC 9027 MBC” value worked out at 64 µg/mL. In the series on Sheep red blood cells, the “HC50 (µM/ml)” value is above 215 µM/ml and the concentration for 50% haemolysis (HC50) was above 512 µg/mL.
Turning to `CC[C@H](C)[C@H](NC(=O)[C@H](Cc1ccccc1)NC(=O)[C@H](CCCCN)NC(=O)[C@H](CC(N)=O)NC(=O)[C@H](CC(C)C)NC(=O)[C@H](CCC(N)=O)NC(=O)CN)C(=O)N[C@@H](CCCCN)C(=O)N[C@@H](CCCCN)C(=O)N[C@@H](C)C(=O)N[C@@H](Cc1c[nH]c2ccccc12)C(=O)N[C@@H](CCCNC(=N)N)C(=O)N[C@@H](CCCCN)C(=O)N[C@@H](Cc1ccccc1)C(=O)N[C@@H](Cc1ccccc1)C(=O)N[C@@H](CCC(=O)O)C(=O)N[C@@H](CCCCN)C(=O)N[C@@H](Cc1ccccc1)C(=O)N[C@@H](C)C(=O)N[C@@H](CCCCN)C(N)=O` [Armaganan], in the series on S. aureus ATCC 33591 (setting [2]), the “S. aureus ATCC 33591 MIC” value was found to be 64 µg/mL. Further, the “S. aureus ATCC 33591 MBC” value in the series with S. aureus ATCC 33591 (setting [3]) is 128 µg/mL. Moreover, the “E. coli ATCC 25922 MIC” value in the series with E. coli ATCC 25922 (setting [2]) came to 8 µg/mL. Besides, in the series with E. coli ATCC 25922 (setting [3]), the “E. coli ATCC 25922 MBC” value is 8 µg/mL. Further, in the series on E. coli ATCC 43827 (setting [2]), the “E. coli ATCC 43827 MIC” value was 8 µg/mL. In addition, the “E. coli ATCC 43827 MBC” value in the series with E. coli ATCC 43827 (setting [3]) amounted to 8 µg/mL. Besides, in series [1], the “A. baumannii ATCC BAA 1605 MIC” value was determined as 4 µg/mL and the “A. baumannii ATCC BAA 1605 MBC” value worked out at 4 µg/mL. Moreover, in the series on P. aeruginosa ATCC 9027, the “P. aeruginosa ATCC 9027 MIC” value was found to be 32 µg/mL and the “P. aeruginosa ATCC 9027 MBC” value was 128 µg/mL. Besides, the “HC50 (µM/ml)” value in the series on Sheep red blood cells is recorded as above 149 µM/ml.
